From the supplement of paper PMC3334620
Over roughly 33,000 sequences, “E-score (-0.5 to 0.5)” has its median near -0.032; the highest 2% begin near 0.36. The list shows a part of the results.

Molecular target: T1, Sko1 (UniProt Q02100)
T1 sequence: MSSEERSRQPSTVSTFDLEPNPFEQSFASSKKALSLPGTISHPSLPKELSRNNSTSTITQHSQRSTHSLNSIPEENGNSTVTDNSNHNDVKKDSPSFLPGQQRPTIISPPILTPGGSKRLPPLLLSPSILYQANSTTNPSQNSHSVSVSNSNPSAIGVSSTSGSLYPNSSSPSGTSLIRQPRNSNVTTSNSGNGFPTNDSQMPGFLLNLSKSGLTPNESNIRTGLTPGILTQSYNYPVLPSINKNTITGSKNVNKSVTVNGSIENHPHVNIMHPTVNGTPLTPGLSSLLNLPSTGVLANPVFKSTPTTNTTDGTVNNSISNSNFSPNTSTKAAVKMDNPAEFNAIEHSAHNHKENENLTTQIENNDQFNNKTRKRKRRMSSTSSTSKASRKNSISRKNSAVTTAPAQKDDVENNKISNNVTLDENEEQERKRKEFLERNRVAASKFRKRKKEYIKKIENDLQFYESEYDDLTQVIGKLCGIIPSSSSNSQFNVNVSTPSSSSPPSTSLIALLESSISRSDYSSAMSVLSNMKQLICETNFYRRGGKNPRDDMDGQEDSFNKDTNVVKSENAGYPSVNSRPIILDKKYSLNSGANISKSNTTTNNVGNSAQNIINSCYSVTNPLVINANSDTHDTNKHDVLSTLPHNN
Assay: PBM E-score (8-mer binding enrichment) (E-score (-0.5 to 0.5)); higher = stronger / more preferred TF binding; most listed sequences are background and not binding sites
Details: protein concentration: 200 nM; construct: GST-full length
Procedure: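 Universal 'all 10-mer' protein binding microarrays (Agilent AMADID 015681) probed with GST-tagged S. cerevisiae TFs (full-length or DBD) made by in vitro transcription/translation (PURExpress), about 100-200 nM. Bound TF was detected with fluorescent anti-GST. Each ungapped 8-mer (which stands for itself and its reverse complement) is scored by the PBM enrichment score (E-score), a modified Wilcoxon-Mann-Whitney statistic from -0.5 to +0.5, computed with the Universal PBM Analysis Suite. Scale: above 0.35 generally sequence-specific binding.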

Sequence	PBM E-score
TGTACACA	0.22
ACCCCGGA	-0.165
AGCACCGA	0.0488
ATACTGGA	0.0132
AAAAGGCA	0.0227
AAAGTGCT	0.018
CAACCACA	0.128
AAAGGATT	-0.0186
CTGACAAA	0.109
GGTGTTGA	-0.137
AAGGCAAT	0.0439
ATAGCCTG	-0.251
AAGCCCAG	-0.214
ACATAGAC	0.074
GACTGCAA	-0.203
ACACATCC	-0.0658
CGCCCCGC	-0.137
AACGTACT	0.37
TCCAATAA	0.146
CTAGAGTC	-0.357
CGAGTGCG	0.0803
AGAGACTC	-0.126

Sequence	PBM E-score
CTAAAGCA	0.0664
AAGGCATC	-0.187
GTGTAAAC	0.112
ATGTATCG	0.223
ATCAGGTG	-0.0909
ACCGGGGA	-0.137
ACGTTTGG	0.296
ACACTGCA	-0.0506
TGAGATCA	0.175
AGCCAACC	-0.0256
AAGACGAC	0.0714
CTTCTTCC	-0.104
ATTTAACA	0.167
AGAAAGGA	-0.0728
ACCAGAAC	-0.0151
AATCAAAT	0.0198
ATACTCAT	0.209
CGCGTCAG	0.222
GAGAGGAA	-0.15
CGGAAAAA	0.0964
AACTGTGG	-0.0872
CCAATTCC	-0.0935

Sequence	PBM E-score
ATTATCGC	0.128
AGGCAGGC	-0.241
ATGGACAA	0.0478
AGGGTATG	0.0638
CATTTTGG	-0.0106
GATACACA	-0.124
CTAAATCA	0.0953
AGAAATAG	0.173
GTACCCGA	-0.169
CTCTCCGA	-0.196
ACACTGCT	-0.111
ACTGAGAG	-0.173
AGCGATTG	-0.0784
TGCCAGAA	-0.224
GAGAAGAA	-0.0866
TACTTGCA	0.0642
ACGGTACG	0.256
ACTTCTAA	-0.0244
GCCCGTCC	-0.338
GTGGCATA	-0.155
GGGTCTGA	-0.0894
CCTACATA	-0.00816

Sequence	PBM E-score
AGTCGAAA	-0.00491
AGGTTCTG	-0.11
TAGTTTCA	0.153
GTAAATAA	0.235
GACAGTCA	-0.0745
AGTAGCTC	-0.0661
ATATGCCG	0.0332
CACCTCGG	-0.183
TACATGAA	0.0954
GGAACTCC	-0.258
ACTGGACT	-0.0619
GTCCTGTA	-0.0116
GACATAAA	0.251
GTATCCTA	-0.0829
AGGACATA	0.0205
CACAGACG	0.0844
CCGGGTGA	-0.164
CTCGGCAG	-0.195
AAGTGCGT	0.272
GCATAAAA	0.0687
